Assay results as given in paper PMC7819943, “Rice protein-binding microarrays: a tool to detect cis-acting elements near promoter regions in rice”.
The list shows a part of the results.

target: T1, OsWOX13 (Oryza sativa, UniProt Q5QMM3 1-267); assay: protein-binding microarray (RPBM); PBS, 2% BSA, 51.3 ng/ul salmon testes DNA, 50 uM zinc acetate, 200 nM TF, 25 C, 1 h; high values mean tight binding; settings: protein: recombinant; tags: N-terminal polyhistidine and DsRed monomer fusion (pET32a); label: CyDye5-dUTP incorporated in the synthesized complementary strand; 3' TTTTT single-stranded linker to array surface; dsDNA, one strand shown
T1 sequence: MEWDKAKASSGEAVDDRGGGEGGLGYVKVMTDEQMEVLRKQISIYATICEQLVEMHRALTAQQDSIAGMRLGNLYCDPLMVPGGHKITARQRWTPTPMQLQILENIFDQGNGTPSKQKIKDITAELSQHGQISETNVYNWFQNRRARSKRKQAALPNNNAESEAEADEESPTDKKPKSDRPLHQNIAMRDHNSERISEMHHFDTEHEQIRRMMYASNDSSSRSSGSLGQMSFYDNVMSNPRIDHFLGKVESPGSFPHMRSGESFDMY
Summary of the method: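 The binding signal is fluorescence intensity per feature, in arbitrary units, read on an Axon 4000B scanner. Polyhistidine- and DsRed-tagged transcription factors (N-terminal fusions) from E. coli BL21-CodonPlus were purified on Ni–NTA and applied at 200 nM for 1 h at 25 °C to a double-stranded, BSA-blocked custom Agilent array in buffer with 50 µM zinc acetate.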

| Sequence | binding signal |
| --- | --- |
| TTAGACATTTTGTGATTTAACAAATTTTGTACACACATATCGGAGTCACCTAGTGCAG | 18600 fluorescence intensity (a.u.) |
| ATAATAAACTGATTTGATTAAGTATATGTGCATTAGGGTGCGGAGTCACCTAGTGCAG | 46900 fluorescence intensity (a.u.) |
| ATTTTAGACTCAGCGCCAAATTGACGGACCTAAAGTGAATCGGAGTCACCTAGTGCAG | 7760 fluorescence intensity (a.u.) |
| TTGATTTATTTGCAGATTAATTCCGATCGAAATTAAAGTTCGGAGTCACCTAGTGCAG | 25100 fluorescence intensity (a.u.) |
| CTCTGACAAAATAAACTAGAGAGGTGGAGCTCGGTTTAGGCGGAGTCACCTAGTGCAG | 5010 fluorescence intensity (a.u.) |
| GGATTCAGCATACCAATCTAATTAGGTTATTGGGGTGGTGCGGAGTCACCTAGTGCAG | 7140 fluorescence intensity (a.u.) |
| CCCTCAAAATTAGTTCAATTTATGTAAAATTTCAAACTTTCGGAGTCACCTAGTGCAG | 12600 fluorescence intensity (a.u.) |
| CTTAATTAATTCGATCGACATCGATCTTGATGATTCCCTGCGGAGTCACCTAGTGCAG | 33500 fluorescence intensity (a.u.) |
| ACATTTAATACTTCTAATTAGCGTCCAAACATCTGATGTGCGGAGTCACCTAGTGCAG | 9640 fluorescence intensity (a.u.) |
| GTGGGTGATTTGTTGCAAAAGAATATTTTAATTCACTGTACGGAGTCACCTAGTGCAG | 11700 fluorescence intensity (a.u.) |
| GATTAATGAAGTTTTAATTAAACCGAGACAAAATCTTTATCGGAGTCACCTAGTGCAG | 14700 fluorescence intensity (a.u.) |
| TATACATTGAAATTTATAATTGCGTGTAATATAGGATGGACGGAGTCACCTAGTGCAG | 10100 fluorescence intensity (a.u.) |
| CACCAATCAGATCATCAGTTCATCTTTGTGGTTGTGTGGGCGGAGTCACCTAGTGCAG | 18100 fluorescence intensity (a.u.) |
| ACAGTGAAATCAATCCAAAATCATTTATAGGCAATGTACTCGGAGTCACCTAGTGCAG | 3520 fluorescence intensity (a.u.) |
| AATAAATAAATGAGGACTTGTTATAGTTGGTTGAGATGAACGGAGTCACCTAGTGCAG | 4120 fluorescence intensity (a.u.) |
| CTAAATTGATTATACATGATTTAGAGTTAGTAGTTAGCTACGGAGTCACCTAGTGCAG | 59600 fluorescence intensity (a.u.) |
| CCAATTCAATTAATAGGTATTCAAATGAATACCCAAGATTCGGAGTCACCTAGTGCAG | 8620 fluorescence intensity (a.u.) |
| ATAATGATAATCAAGCATGATTCGTTGGTTTGGAGTACCACGGAGTCACCTAGTGCAG | 15700 fluorescence intensity (a.u.) |
| CTTGATTCATCAACAAATGTTATTTAAATATGACATAAATCGGAGTCACCTAGTGCAG | 3240 fluorescence intensity (a.u.) |
| GAAGGAGTTGAGGATTGACATTAATTATCAGCGCATAGGGCGGAGTCACCTAGTGCAG | 6240 fluorescence intensity (a.u.) |
| ACACATAAAAGATAGATAGATAATGGATAGAGAACCAGTCCGGAGTCACCTAGTGCAG | 5110 fluorescence intensity (a.u.) |

| Sequence | binding signal |
| --- | --- |
| TAGCTAATTTGCACCCACATGCATGTGCTTCGAGTAGTTACGGAGTCACCTAGTGCAG | 7070 fluorescence intensity (a.u.) |
| TATTAGCACATGATTAATTAAGTACAAGATAGGTATCCCGCGGAGTCACCTAGTGCAG | 9350 fluorescence intensity (a.u.) |
| ACCCCTTCTAATTAATTGATATTATGTACTTCCCTAATATCGGAGTCACCTAGTGCAG | 37700 fluorescence intensity (a.u.) |
| TGCCTTGATTAATCCGTCGTCGTTGTGTCGTCGCACGGCGCGGAGTCACCTAGTGCAG | 29200 fluorescence intensity (a.u.) |
| ATTGTGATAACGTTTCATAATTACTATGTGCTCCTTATGTCGGAGTCACCTAGTGCAG | 6850 fluorescence intensity (a.u.) |
| ATAACATGTCAGTAATTACTTGAAATAGAAAATCAACTAACGGAGTCACCTAGTGCAG | 13200 fluorescence intensity (a.u.) |
| CCATTGACAATTAATTAGACCCAACGCAACTCAGCTGCTTCGGAGTCACCTAGTGCAG | 26900 fluorescence intensity (a.u.) |
| AGCCCGATTTTCTGTTCATTTCCACGTTTGATTTGGTGCACGGAGTCACCTAGTGCAG | 3350 fluorescence intensity (a.u.) |
| TTTCTTGATTTGGTTGGGATTGGTTGTTCTTGGGCTTATCCGGAGTCACCTAGTGCAG | 24600 fluorescence intensity (a.u.) |
| CAATTTATCCCAATTATGATCTGATTATACCATTGTTTTCCGGAGTCACCTAGTGCAG | 6600 fluorescence intensity (a.u.) |
| AAAGTGATTTGTAAGATTGTTCACAAAATGTACATCTCTTCGGAGTCACCTAGTGCAG | 20000 fluorescence intensity (a.u.) |
| ATTTTCTGTCAACTTCGACTAACAAAATAAAATGACCAGCCGGAGTCACCTAGTGCAG | 4590 fluorescence intensity (a.u.) |
| GTTAACGACCAAAATTGGTAGCATCGACACCTCCCTGGGCCGGAGTCACCTAGTGCAG | 4240 fluorescence intensity (a.u.) |
| CTAAACTGCACGTAACCTCCAATCTTTGAGAATACCATGGCGGAGTCACCTAGTGCAG | 14200 fluorescence intensity (a.u.) |
| TCATGATTTCTGAATCTTTGTCTTTTCCTTGAGTAGCTATCGGAGTCACCTAGTGCAG | 7640 fluorescence intensity (a.u.) |
| AAAGCAGCATCCATTTAATTTAATTTAATTTCCCCTCTCCCGGAGTCACCTAGTGCAG | 4500 fluorescence intensity (a.u.) |
| GTCAAACCTAATCAATATACATTTGTCGGCTTAGCCATCGCGGAGTCACCTAGTGCAG | 5560 fluorescence intensity (a.u.) |
| TTCGATTGATTGATAGTTGATTGTGTGTTTACAATTGAACCGGAGTCACCTAGTGCAG | 52600 fluorescence intensity (a.u.) |
| TTAAATGTTAGTTTAAATGAAATTAATTTCGTGTTGTAAACGGAGTCACCTAGTGCAG | 14200 fluorescence intensity (a.u.) |
| TGCAAATTACCCATAAATCAAAGGGTATCCGACCTATATTCGGAGTCACCTAGTGCAG | 11700 fluorescence intensity (a.u.) |
| TAAGTGATTTAAATTGTCTGTAAACTGATGGCAACAATATCGGAGTCACCTAGTGCAG | 46400 fluorescence intensity (a.u.) |
